In the supplement of paper PMC10338343:
± gives the standard deviation. Only a part is listed here, and it is no random draw.

system: MIWI (PIWIL1) piRISC loaded with L1MC piRNA (30 nt); experiment: pre-steady-state target cleavage rate (min^-1); MIWI and MILI are mouse PIWI proteins and EfPiwi is from a freshwater sponge; tags in brackets are library labels; higher = faster piRNA-guided slicing of the target; conditions: guide: L1MC piRNA 5'p-UAACUAAAUACUAUGCAAGCUGUAGGUCCU; auxiliary factor: 500 nM mouse GTSF1
Summary of the method: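 Using HEPES–potassium acetate buffer at 33 °C, 1 nM active affinity-purified piRISC with a single synthetic guide was mixed with 0.1 nM transcribed, DNA-blocked target RNA library for 0–8 or 0–960 min, with or without 500 nM GTSF1 partner protein. Uncleaved targets were sequenced and normalised to depth and to weakly complementary targets, and three trials were pooled with k3 capped at 0.0001 min^-1. A burst-and-steady-state fit gave the pre-steady-state cleavage rate.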

Sequence	pre-steady-state target cleavage rate
UCCUCCUACAGCUUGACAUAGUAUUUAGUUA	0.651 ± 0.053
UCCUGGAACAGCUUCCAUAGUAUUAAGUUA	0.0095 ± 0.0047
UCCUCCUACAGCUUGCAUAGUAAUAAGUUA	0.227 ± 0.029
UCGACCUACAGCUUGCAUAGUAAAAAGAAA	0.252 ± 0.055
UCCUGGAUGUCGUAUGCAUAGUAUUUAGUUA	0.011 ± 0.0041
UCCUGCUACAGCUUGUCAUAGUAUUUAGUUA	0.258 ± 0.029
UCGACCUACAGCUUGCAUAGUAAAAAGUAA	0.197 ± 0.026
UCCUCCUACAGGUUGCAUAGUAUUUUCAAA	0.139 ± 0.025
UCCUGGAUGUGCUUGCAUACAAUUUAGUUA	0.0043 ± 0.0036
UCCUGCUACAGCUUGGUAAGUAUUUAGUAA	0.0603 ± 0.018
UCCUGGAUGUGCUUGCAUUCUAUUUAGUUA	0.00483 ± 0.0041
AGGACCUACAGCUUGCAAUCUAUUUAGUUA	0.173 ± 0.018
AGGACCUACAGCUUGCAUAGUAAAAUCAAA	0.312 ± 0.075
UCCACCUACAGGAUGCAUAGUAUUUUCAAA	0.299 ± 0.053
UCGACCUACUCGUUGCAUAGUAUUUUCAAA	0.162 ± 0.025
UCCUGGAUCAGCUUGCAUAGAUAUUUAGUUA	0.00396 ± 0.0038
UCCUGGAUGUCGAAGCAUAGUAUUUAGUUA [g2:g16:cont:t1A]	0.0133 ± 0.0028

Sequence	pre-steady-state target cleavage rate
UCCUCCUACAGGAAGCAUAGUAUUUACAAA	0.103 ± 0.02
AGGACCUACAGCUUGCAUAGUUUUAGUUA	0.25 ± 0.086
UCCUGGAUCAGCUUGCAUAGUAUAUAGAAA	0.245 ± 0.049
UCCACCUACAGCUUGCAUAGUAAAAAGUUA	0.297 ± 0.026
UCCUGGUACACGAUGCAUAGUAUUUAGUUA	0.164 ± 0.037
UCCUGGAUGACGUUGCAUAGUAUUUAGUAA	0.0132 ± 0.0049
UGGACCUACAGCUUGCAAUGUAUUUAGAAA	0.0549 ± 0.0084
UCCUGGAUGUCGAACCAUAGUUAAUAGUUA	< 0.0001
UCCUGGAUGUCCUUGCAUAGUAUUUCAGUUA	0.0207 ± 0.0071
UCCUGGAACAGCUUCGAUAGUAUUUAGUUA	0.288 ± 0.029
UCCUGGAUGUGCUUGGAUAGUAUUUAGAAA	0.00431 ± 0.0033
UCCUGGAUGUCGUUAGCAUAGUAUUUAGUUA	0.0102 ± 0.0036
UCGACCUACAGCUUCGAUAGUAUUUAGUAA	0.413 ± 0.042
UCCUGGAACACCUUCCAUAGUAUUUAGUUA	0.00593 ± 0.0046
AGGACCUUGAGCUUGCAUAGUAUUUUCAAA	0.0368 ± 0.01
UCCUGGAUGUCGUUGCUUAGUAUUUACUUA	< 0.0001
UCCUGGAUGUCGAAGCAUAGUAUUUAAGUUA	0.0123 ± 0.0033

same assay, conditions: guide: L1MC piRNA 5'p-UAACUAAAUACUAUGCAAGCUGUAGGUCCU; auxiliary factor: none (no GTSF1)

Sequence	pre-steady-state target cleavage rate
UCCUGGAUGUCGUUGCAUAGUUUUUACUUA	< 0.0001
UCCUGGAUGUCGAACCAUAGUAUAUAGUUA	< 0.0001
UCCUGGAUGUGGUUGCAUAGUUUUUAGUUA	0.00459 ± 0.0039
UCCUGGAUGUCGAUGCAUAGUUUUUACUUA	< 0.0001
UGGACCUACAGCUUGCAUAUUAUUUAGUUA	0.0442 ± 0.0088
